Reference: US3951746A, “Antibiotics and process for their manufacture” (Schering Corporation, priority 1975, dated 1976)

Settings: 0.1 molar buffers, pH range of 2 - 10
From the text: Further, it is stable to boiling for at least thirty (30) minutes in 0.1 molar buffers in the pH range of 2 - 10.

For CN[C@@H]1[C@@H](O)[C@@H](O[C@@H]2[C@@H](O)[C@H](O[C@H]3OC(C(C)N)=CC[C@H]3N)[C@@H](N)C[C@H]2N)OC[C@]1(C)O (stereo partly shown) [Verdamicin I], the stable to boiling was no less than 30 min.
